# Hit rate of the full screen: of about 140,000 compounds, about 240 (0.17%) were called active. The inconclusive results got no clear call from the source; some entries with a clear call stand among them for comparison. The call rests on the fitted dose curve; in most records, active means well fitted inhibition curve with a large enough effect; inconclusive means small, poorly fitted or top-dose-only effect; inactive means no such curve, though single readings can be large or run the other way. A potency beside an inconclusive call is a rough fit, not a confirmed value.
# Test: Primary qHTS assay for inhibitors of alpha-synuclein gene (SNCA) expression; further: nearly all actives have a fitted effect of over 45% in size
# Settings: HEK-293 SNCA-luciferase knock-in, luminescence, 24 h; series mostly up to 57.2 µM
# Potency means the concentration at half of the fitted maximal effect; tags describe the fitted curve by direction and shape.
row,Compound,Potency
1,COCCNC(=O)[C@@H]1C[C@@H](O)CN1C1CCN(C(=O)C(C)C)CC1,inactive
2,COc1cc(C)c(-c2nc(CN3CCOC(CCN)C3)c(C)o2)cc1C (stereo not given),inactive
3,O=C(CSc1c2c(nc3cc(Cl)ccc13)CCCC2)N1CCN(c2ccccc2)CC1,"inconclusive: 25.1 µM [inhibitor, single point]"
4,COc1cc(NC(=O)c2c3c(nc4ccccc24)C(=O)N(C2CCCCC2)C3)cc(OC)c1,"inconclusive: 0.178 µM [inhibitor, partial curve, poor fit]"
5,COc1ccc(S(=O)(=O)N2CCC3(CC2)CC(CC(=O)NC2CC2)CCO3)cc1 (stereo not given),inactive
6,CCOC(=O)c1noc2ncnc(N3CCN(c4cccc(C(F)(F)F)c4)CC3)c12,"inconclusive: 39.8 µM [inhibitor, single point]"
7,CCCn1ccc2sc(C)c(C(=O)NCCC3=CCCCC3)c2c1=O,"inconclusive: 0.708 µM [inhibitor, full curve, poor fit]"
8,Cc1ccc(CNC(=O)c2cc3c(N(C)Cc4ccccc4)nc(C)cn3n2)cc1,inactive
9,CC(=O)c1ccc(NC(=O)C2=CC(c3ccc(C)cc3)=NS(=O)(=O)N2C)cc1,"inconclusive: 2.51 µM [inhibitor, partial curve, poor fit]"
10,COc1ccc(C)cc1NC(=O)COCc1cc(-c2ccc(F)cc2)on1,"inconclusive: 7.08 µM [inhibitor, single point]"
11,CCCS(=O)(=O)N1CCc2n[nH]c(=O)n2CC1,"inconclusive: 39.8 µM [inhibitor, single point]"
12,CC(C)CCNC(=O)N1CCC2(CC1)CC(N(Cc1ccc(F)cc1)C1CC1)CCO2 (stereo not given),inactive
13,CC(=O)NC[C@@H]1C=C(C)[C@H](Cc2nc3ccc(F)cc3[nH]2)C[C@H]1C(C)C,inactive
14,CCN(CC)Cc1nc(C2(O)CCN(C3CCC(F)(F)CC3)CC2)cs1,"inconclusive: 14.1 µM [inhibitor, partial curve, poor fit]"
15,O=C(O)CCn1ncc2cc(OCC3CCN(C(=O)Cc4ccccc4)CC3)ccc21,inactive
16,O=C(c1cccn1C1CC1)N1C[C@H](CO)C[C@H](CN2CCCC2)C1,"inconclusive: 7.08 µM [inhibitor, full curve, poor fit]"
17,CC(=O)N1CCCc2cc(S(=O)(=O)N3CCC(C(=O)NCc4ccccc4)CC3)ccc21,inactive
18,Cc1ccc(Cl)cc1N1CCN(C(=O)c2cc(S(=O)(=O)N3CCCC3)c[nH]2)CC1,"inconclusive: 39.8 µM [inhibitor, single point]"
19,CCOC(=O)CNC(c1ccccc1)c1cc(Br)ccc1NC(=O)c1cccc(Cl)c1 (stereo not given),"inconclusive: 10 µM [inhibitor, full curve, poor fit]"
20,COc1ccc(C(=O)Nc2ccc(-c3noc([C@@H]4CCCN4Cc4ccncc4)n3)cn2)cc1,inactive
21,O=C(NCc1ccc2c(c1)OCO2)c1nc(-c2cccc(C(F)(F)F)c2)c2cnccn12,inactive
22,Cc1ccc(Cc2cn3cc(-c4ccccc4)nc3s2)cc1,"inconclusive: 1.78 µM [inhibitor, full curve, poor fit]"

row,Compound,Potency
1,COc1cc(NC(=O)CC2CCOCC2)cc(OC)c1,"inconclusive: 11.2 µM [inhibitor, partial curve, poor fit]"
2,O=S(=O)(NC[C@H]1Cn2c(-c3ccc(F)cc3)cnc2CO1)c1ccc(Cl)cc1,"inconclusive: 56.2 µM [inhibitor, single point]"
3,O=C(Nc1cc(C2CC2)nn1-c1ccccc1)c1ccccc1F,inactive
4,CCCCN1C(=O)NC(c2ccccc2OC)C2=C1COC2=O (stereo not given),"inconclusive: 31.6 µM [inhibitor, single point]"
5,Cc1oc2ccn(Cc3cccc(F)c3)c(=O)c2c1C(=O)NCC1CCCCC1,"inconclusive: 7.08 µM [inhibitor, single point]"
6,CCc1ccc(NC(=O)c2sc(-n3nc(C)c(Cc4ccc5c(c4)OCO5)c3C)nc2C)cc1,"inconclusive: 2.24 µM [inhibitor, full curve]"
7,O=C(CCc1nnn2c1CN(C(=O)Nc1ccc3c(c1)OCCO3)CC2)N1CCCC1,"inconclusive: 39.8 µM [inhibitor, partial curve, poor fit]"
8,CNC(=O)[C@H]1O[C@@H](n2cnc3c(NCc4ccc(I)cc4)nc(Cl)nc32)[C@H](O)[C@@H]1O,"inconclusive: 0.708 µM [inhibitor, single point]"
9,O=C(NCc1ccc(F)cc1)c1cc(-c2ccc(F)cc2)c2nncn2n1,inactive
10,N#Cc1ccc(CN2CCC3OCCN(Cc4ccccc4F)C(=O)C3C2)cc1 (stereo not given),"inconclusive: 3.98 µM [inhibitor, partial curve, poor fit]"
11,CCCNC(=O)N1CCCCCNC(=O)[C@@H]2CCCC[C@@H]21,inactive
12,COC(=O)[C@H](NC(=O)[C@@H]1C[C@H](NC(=O)Nc2cccc(SC)c2)CN1C(=O)c1cccn1C)C(C)C,inactive
13,O=C(Nc1ccc(C(F)(F)F)cc1)c1cc(S(=O)(=O)N2CCCc3ccccc32)ccc1F,"inconclusive: 39.8 µM [inhibitor, partial curve, poor fit]"
14,O=[S+]([O-])(Nc1nncs1)c1ccc2c(c1)OCCN(Cc1cncc(F)c1)C2,inactive
15,Cc1nnc2c3ccccc3nc(Nc3ccccc3C(=O)O)n12,"inconclusive: 28.2 µM [inhibitor, partial curve, poor fit]"
16,Cc1ccc(CN2CC[C@H](c3nnc(-c4ccccc4)o3)C2)cc1,inactive
17,CCOC(=O)c1cc(-c2ccccc2)n(CCCC(=O)Nc2cccc(C)c2)c1C,"inconclusive: 22.4 µM [inhibitor, partial curve, poor fit]"
18,Cc1ncc(S(C)(=O)=O)c(N2CC(N3CCCCC3C)C2)n1 (stereo not given),inactive
19,CCN(CC)C(=O)CSc1nc2cc3c(cc2c(=O)n1CCCC(=O)NCc1ccc2c(c1)OCO2)OCO3,"inconclusive: 14.1 µM [inhibitor, partial curve, poor fit]"
20,Cc1oc2ccn(Cc3ccccc3F)c(=O)c2c1C(=O)NCCCN1CCCCC1C (stereo not given),"inconclusive: 39.8 µM [inhibitor, single point]"
21,CN(C)[C@@H]1CN(Cc2ccc(F)cc2F)CC[C@@H]1CNC(=O)C1CC1,"inconclusive: 39.8 µM [inhibitor, single point]"
22,CCCc1ccc(S(=O)(=O)N2CCN(C3(CC)CCN(C(=O)NC)C3)CC2)cc1 (stereo not given),inactive

row,Compound,Potency
1,Cc1cc(OCCN(C)C)c(C)c2c1CC[C@@H]([C@H](C)C(=O)NCc1cccs1)C2,inactive
2,COC(=O)CN1C(=O)[C@@H]2C[C@@H](O)CN2C2(CN(Cc3ccccc3Cl)C2)C1=O,inactive
3,CC(c1cccs1)N(C)Cc1ccccc1 (stereo not given),"inconclusive: 28.2 µM [inhibitor, partial curve, poor fit]"
4,CCN1c2cc(C(=O)NCc3ccc(OC)cc3)ccc2C(=O)N2CCCCCC21 (stereo not given),"inconclusive: 17.8 µM [inhibitor, single point]"
5,NCc1ccc(-c2cc(F)cc(F)c2)cc1,inactive
6,COCCNC(=O)c1ccc(OC2CCN(C/C=C/c3ccc(F)cc3)CC2)c(Cl)c1,"inconclusive: 17.8 µM [inhibitor, single point]"
7,CC(C)CCN1CCC2(CC1)CC(=O)N(c1ccccc1)c1ccccc1O2,"inconclusive: 11.2 µM [inhibitor, partial curve, poor fit]"
8,Cc1noc(C)c1[S+](=O)([O-])N1CCCC1C(=O)N1CCC(N2CCCC2=O)CC1 (stereo not given),"inconclusive: 12.6 µM [inhibitor, partial curve, poor fit]"
9,Cc1cc(C)c2c(=O)cc(C(=O)Nc3sc4c(c3C(=O)NCc3ccco3)CCCC4)oc2c1,"inconclusive: 39.8 µM [inhibitor, single point]"
10,COc1ccc(C)cc1NC(=O)CCc1ccc2c(c1)CN(C(=O)C1CC1)CCO2,"inconclusive: 22.4 µM [inhibitor, single point]"
11,Cc1cc(C(=O)N[C@@H]2CCC[C@@H](C(=O)N3CCN(C)CC3)CC(=O)N(C)C2)no1,"inconclusive: 56.2 µM [inhibitor, single point]"
12,CC(=O)c1ccc(NC(=O)c2nc(-c3ccc(Cl)cc3)n3c2CCCCC3)cc1,"inconclusive: 39.8 µM [inhibitor, single point]"
13,CC(C)Cc1cc(C(=O)NCC2(c3ccccc3F)CCCC2)on1,"inconclusive: 20 µM [inhibitor, single point]"
14,CC1(COc2ccc3[nH]ccc3c2)COc2ccc(C(=O)NCc3cccs3)cc2N1 (stereo not given),"inconclusive: 28.2 µM [inhibitor, partial curve, poor fit]"
15,O=C(Cn1ccn2nc(-c3ccccc3)c(CO)c2c1=O)Nc1cc(Cl)cc(Cl)c1,inactive
16,CC1=C[C@@H](CNC(=O)CCC(=O)O)[C@H](C(C)C)C[C@H]1Cc1nc2ccc(Cl)cc2[nH]1,inactive
17,COc1cccc(NC(=O)[C@@H]2C[C@@H](c3ccc(F)cc3)N(Cc3ccccc3)C2)c1,inactive
18,CC(C)c1ccc(CC(=O)N2CCCc3ncc(C(=O)Nc4ccn(C)n4)cc32)cc1,inactive
19,COc1ccc([C@H]2C[C@@H](O)[C@@H](O)[C@@H]2NC(=O)c2c(C)noc2C)cc1,"inconclusive: 3.16 µM [inhibitor, partial curve, poor fit]"
20,O=C(CCn1ccc(=O)[nH]c1=O)N1CCn2nc(Cc3ccccc3)cc2C1,"inconclusive: 3.16 µM [inhibitor, partial curve, poor fit]"
21,CC(=O)Nc1cccc(-c2n[nH]c3c2CC(=O)N(Cc2ccccc2F)C3)c1,"inconclusive: 56.2 µM [inhibitor, single point]"

# Reference: PubChem BioAssay AID1671194 (National Center for Advancing Translational Sciences (NCATS), 2021)
